One assay has as its target GST-SERPINA1 (human) (UniProt P01009). Briefly: pull-down; GST pull-down on glutathione resin; GST-SERPINA1 and FLAG-ITGB3 purified from E. coli; GST NC as control; Western blot; both purified. (In general: Immunoblotting shows a protein as a band on a membrane.)
Assay [1] addresses ITGB3-3×FLAG (wild type) (human) (UniProt P05106). As to the kind of experiment: co-IP; HCC cell lines co-transfected with wild-type or mutant SERPINA1 and ITGB3 plasmids for 48 h; immunoprecipitation with HA- or FLAG-tag antibodies.
Assay [2] shares this target. Briefly: co-IP; co-IP of ITGB3 and ITCH in HCC cells with SERPINA1 overexpression (Fig. 5d).

Chains of the proteins cited; added tags and fusions are not shown. Lines headed by an entry give the natural chain unless they say otherwise; changes in a name come on top. A line that says so, or that is headed by a name, gives the form on record, which may keep a tag or linker. Residues count along the entry.
wild-type SERPINA1 (tagged plasmid construct) (P01009, residues 25-418): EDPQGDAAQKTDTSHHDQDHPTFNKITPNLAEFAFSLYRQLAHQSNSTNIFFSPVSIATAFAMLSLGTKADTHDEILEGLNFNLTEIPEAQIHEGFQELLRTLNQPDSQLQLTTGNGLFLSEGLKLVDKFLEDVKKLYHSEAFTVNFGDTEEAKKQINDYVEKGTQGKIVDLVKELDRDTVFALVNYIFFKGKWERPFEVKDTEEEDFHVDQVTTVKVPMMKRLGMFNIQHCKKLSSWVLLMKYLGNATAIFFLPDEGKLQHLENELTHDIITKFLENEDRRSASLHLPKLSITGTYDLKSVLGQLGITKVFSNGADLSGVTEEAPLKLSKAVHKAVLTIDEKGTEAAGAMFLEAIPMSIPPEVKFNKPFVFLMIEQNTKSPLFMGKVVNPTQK
SERPINA1 Δ60–120 (P01009, form named): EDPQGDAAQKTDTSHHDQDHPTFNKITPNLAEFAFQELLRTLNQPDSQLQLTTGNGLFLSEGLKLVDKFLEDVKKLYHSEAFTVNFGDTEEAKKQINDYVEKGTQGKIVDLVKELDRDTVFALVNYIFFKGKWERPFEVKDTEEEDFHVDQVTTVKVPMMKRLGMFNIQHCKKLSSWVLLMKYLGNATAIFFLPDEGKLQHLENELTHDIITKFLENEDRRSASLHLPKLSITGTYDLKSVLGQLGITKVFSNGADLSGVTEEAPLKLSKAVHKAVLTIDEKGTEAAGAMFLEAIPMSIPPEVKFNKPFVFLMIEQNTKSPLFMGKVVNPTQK
SERPINA1 Δ320–392 (P01009, form named): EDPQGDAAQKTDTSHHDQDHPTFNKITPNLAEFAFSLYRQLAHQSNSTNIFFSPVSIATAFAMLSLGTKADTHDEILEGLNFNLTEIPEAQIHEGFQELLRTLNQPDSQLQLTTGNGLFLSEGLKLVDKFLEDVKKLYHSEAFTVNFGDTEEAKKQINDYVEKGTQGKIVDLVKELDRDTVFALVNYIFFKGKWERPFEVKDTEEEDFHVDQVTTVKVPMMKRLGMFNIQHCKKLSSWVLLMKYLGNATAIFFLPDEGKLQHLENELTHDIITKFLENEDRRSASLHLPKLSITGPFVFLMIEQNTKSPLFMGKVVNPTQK
UniProt P05106, residues 27-788: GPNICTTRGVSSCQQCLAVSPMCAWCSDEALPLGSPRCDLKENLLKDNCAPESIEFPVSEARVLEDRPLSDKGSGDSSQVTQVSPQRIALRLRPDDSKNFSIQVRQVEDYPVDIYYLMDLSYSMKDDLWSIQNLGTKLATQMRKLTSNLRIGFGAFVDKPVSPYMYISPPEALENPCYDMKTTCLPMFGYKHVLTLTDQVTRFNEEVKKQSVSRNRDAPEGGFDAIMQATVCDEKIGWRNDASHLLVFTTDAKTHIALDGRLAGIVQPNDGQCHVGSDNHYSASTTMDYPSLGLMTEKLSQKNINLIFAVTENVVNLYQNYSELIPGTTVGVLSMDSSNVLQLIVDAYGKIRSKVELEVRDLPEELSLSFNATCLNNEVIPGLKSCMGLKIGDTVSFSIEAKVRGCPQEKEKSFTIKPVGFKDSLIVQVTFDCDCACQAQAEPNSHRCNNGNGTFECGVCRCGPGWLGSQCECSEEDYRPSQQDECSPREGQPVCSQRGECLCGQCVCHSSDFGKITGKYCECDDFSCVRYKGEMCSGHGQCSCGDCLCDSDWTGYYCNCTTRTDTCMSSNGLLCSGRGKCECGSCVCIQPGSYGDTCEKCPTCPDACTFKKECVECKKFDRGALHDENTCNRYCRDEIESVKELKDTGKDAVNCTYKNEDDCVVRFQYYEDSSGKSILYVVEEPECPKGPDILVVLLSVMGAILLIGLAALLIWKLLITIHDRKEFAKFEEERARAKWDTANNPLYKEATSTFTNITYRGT

Results are given in words; binding and its absence hold for the method and conditions named. For some assays here: In cells and extracts the contact can be indirect. Some entries that bind do so weakly or less than the wild type.

With “FLAG-ITGB3 (recombinant ITGB3) (from UniProt P05106 27-788) (receptor)”, the binding entry in the assay with GST-SERPINA1 (human) is recorded as “binds”.

With “SERPINA1 Δ60–120 (from UniProt P01009 25-418)”, the binding result in assay [1] is given as “binds”. In the case of “SERPINA1 Δ320–392 (from UniProt P01009 25-418)”, the binding result in assay [1] is given as “no binding”. Consider “SERPINA1, overexpressed (Lv-OE-SERPINA1) (from UniProt P01009 25-418)”, for which the binding result in assay [2] is given as “binds”. For the substance “wild-type SERPINA1 (tagged plasmid construct) (from UniProt P01009 25-418)”, in assay [1], the binding entry is “binds”.

The values are drawn from publication PMC12753576.
